Experimental data taken from ChEMBL document CHEMBL4888484, “Replenishing the malaria drug discovery pipeline: Screening and hit evaluation of the MMV Hit Generation Library 1 (HGL1) against asexual blood stage Plasmodium falciparum ,using a nano luciferase reporter read-out” (2022).
Out of some 150,000 compounds screened, about 540 (0.36%) showed an effect of 50% or more. Some of the results follow.

tested on: Plasmodium falciparum; experiment: Primary screen in NF54 nanoGlo assay, in single point, at 2uM, 72h; a lower Z score goes with more inhibition; assay type: functional, Erythrocyte; settings: timepoint 72 hour

SMILES	% Inhibition	Z score
CCC[C@H]1CN(C(=O)c2cccc(N3Cc4cc(C)c(C)cc4C3)c2)C[C@@H]1N	-8%	1.14
COc1ccc(N2C[C@@H](C(=O)OCC(=O)Nc3cc(C)on3)CC2=O)cc1	0%	0.02
O=C(Nc1cc(-n2ccnc2)ncn1)c1ccccn1	-1%	0.16
C[C@H](NS(=O)(=O)c1cccnc1)c1ncnn1C	-12%	1.45
Cc1cc(C)n([C@H]2CCN(Cc3ccc4c(c3)OCCO4)C2)n1	-2%	0.38
Clc1cncc(CN2CC[C@H](c3ncccn3)C2)c1	16%	-1.99
COc1cccc([C@H]2CC(=O)Nc3ccsc32)c1OCCc1ccccc1	6%	-0.76
CCCCn1c(N)c(N(C(=O)Cn2ccc(C(F)(F)F)n2)C2CCCC2)c(=O)[nH]c1=O	-10%	1.3
CCn1ccnc1CN(C)CCc1cnn(C)c1	-6%	0.67
COc1ccc(-c2n[nH]c(C3CC3)c2NC(=O)Nc2ccc(F)cc2)c(OC)c1	-15%	2.66
COCCN(CCN(C)C)C(=O)c1cnn(C(C)(C)C)c1	-6%	0.84
Cn1ccnc1CNc1cccc(C(=O)NC2CC2)c1	-4%	0.73
O=C(Nc1ccc2oc(C3CC3)nc2c1)c1ccccc1C(F)(F)F	14%	-1.84
COc1cc(NC(=O)COc2ccccc2Cl)ncn1	4%	-0.73
CCc1nnc(Cn2ccc(=O)c3sccc32)o1	-5%	0.55
C[C@H](NCCCNS(C)(=O)=O)c1ccccc1Br	-13%	2.08
Cc1nc(CC(C)C)oc1C(=O)O[C@@H](C)c1nccs1	-7%	1
Cc1cccc([C@@H]2CCCN2Cc2cnc(C3CC3)s2)n1	0%	-0.05
Cn1cc(OC[C@H]2CCCC2(F)F)cn1	-9%	1.27
Cc1cc(-n2cnnn2)cc(C)c1S(=O)(=O)N1CCCc2ccccc21	29%	-3.33
Cc1cc(Cl)cc(C(=O)[C@H](C#N)c2nc(C)cc(C)n2)c1	-18%	2.47
CC[C@H](NCc1noc2c1CCCC2)c1cccc(S(N)(=O)=O)c1	-5%	0.61
COCc1nc(CN2C[C@@H](C)[C@@](C)(O)C2)no1	-5%	0.48
O=C([C@@H]1CCCO1)N1CCc2ccc(Br)cc2C1	-4%	0.45
COc1c(C)cc(C(=O)[C@H]2CCCN(S(=O)(=O)c3c(C)nn(C)c3Cl)C2)cc1C	-10%	0.9
